Experimental data published in PubChem BioAssay AID504332 (National Center for Advancing Translational Sciences (NCATS), 2011).
Out of some 350,000 compounds screened, about 31,000 (8.9%) were called active. Inconclusive results, whose numbers are uncertain, are shown with a selection of clear calls. Calls follow the shape of the dose curve; as a rule, active = well fitted inhibition curve with a large enough effect; inconclusive = small, poorly fitted or top-dose-only effect; inactive = no such curve, though single readings can be large or run the other way. Potencies of inconclusive entries are doubtful fits and often do not repeat.

biological target: Histone-lysine N-methyltransferase EHMT2 (Homo sapiens) (UniProt Q96KQ7); assay: qHTS Assay for Inhibitors of Histone Lysine Methyltransferase G9a; conditions: G9a H3K9 monomethylation, AlphaScreen, 2 h; activity, negative = inhibition: at 59 µM (top of the series) unless noted; also: nearly all actives have a fitted effect of over 75% in size
Procedure, shortened: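 G9a (20 nM) was preincubated 15 min with compound, then reacted 2 h at room temperature with 500 nM biotin-H3K9 peptide and 20 µM SAM. Monomethyl-H3K9 detected by AlphaScreen using anti-H3K9me1 antibody.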
% is scaled to controls: 0 for no effect and ±100 for the full control effect; potency is read from the fitted curve at half-maximal effect; tags tell the direction and shape of the fitted curve.

Sequence of UniProt Q96KQ7 (Q96KQ7 whole entry, looked up): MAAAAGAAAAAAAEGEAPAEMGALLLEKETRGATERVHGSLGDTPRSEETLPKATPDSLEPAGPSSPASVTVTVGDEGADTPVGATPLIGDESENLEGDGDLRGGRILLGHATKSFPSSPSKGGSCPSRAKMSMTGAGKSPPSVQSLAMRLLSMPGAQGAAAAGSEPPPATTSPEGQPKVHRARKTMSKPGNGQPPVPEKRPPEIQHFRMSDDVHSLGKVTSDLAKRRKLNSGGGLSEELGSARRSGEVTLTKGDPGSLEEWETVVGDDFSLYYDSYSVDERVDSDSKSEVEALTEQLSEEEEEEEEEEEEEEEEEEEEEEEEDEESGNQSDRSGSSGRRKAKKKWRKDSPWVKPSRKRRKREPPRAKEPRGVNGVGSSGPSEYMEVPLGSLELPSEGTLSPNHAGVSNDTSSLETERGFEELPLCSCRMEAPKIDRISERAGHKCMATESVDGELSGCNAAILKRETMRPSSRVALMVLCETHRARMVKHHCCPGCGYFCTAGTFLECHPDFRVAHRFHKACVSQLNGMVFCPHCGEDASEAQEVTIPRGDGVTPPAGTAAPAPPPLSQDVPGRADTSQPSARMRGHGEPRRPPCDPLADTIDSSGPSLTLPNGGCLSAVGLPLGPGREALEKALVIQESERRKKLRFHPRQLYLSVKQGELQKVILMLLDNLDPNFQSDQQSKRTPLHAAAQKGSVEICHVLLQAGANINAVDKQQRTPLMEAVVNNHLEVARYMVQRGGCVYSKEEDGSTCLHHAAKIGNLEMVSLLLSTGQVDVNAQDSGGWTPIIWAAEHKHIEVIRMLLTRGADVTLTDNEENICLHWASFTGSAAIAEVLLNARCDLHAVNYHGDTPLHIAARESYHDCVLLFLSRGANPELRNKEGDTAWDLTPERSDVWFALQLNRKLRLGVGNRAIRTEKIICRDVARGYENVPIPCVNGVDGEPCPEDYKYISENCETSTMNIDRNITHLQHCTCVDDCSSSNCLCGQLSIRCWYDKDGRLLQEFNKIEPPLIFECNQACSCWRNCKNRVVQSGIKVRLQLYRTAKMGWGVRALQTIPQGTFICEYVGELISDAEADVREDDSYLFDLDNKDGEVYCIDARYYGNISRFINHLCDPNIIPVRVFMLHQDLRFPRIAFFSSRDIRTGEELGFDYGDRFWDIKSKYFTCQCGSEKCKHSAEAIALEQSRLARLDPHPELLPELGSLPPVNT

SMILES | Potency | activity, negative = inhibition
O=C(CNS(=O)(=O)c1cccc(Br)c1)NCC1CCCCC1 | inconclusive: 39.8 µM [inhibitor, partial curve] | –
Cc1ccc(NC(=O)c2cccc(NC(=O)CC3SC(N4CCCCC4)=NC3=O)c2)nc1 (stereo unspecified) | inconclusive: 89.1 µM [inhibitor, partial curve, poor fit] | –
COC(=O)c1cc(S(=O)(=O)n2nc(C)c(Br)c2C)c(Cl)cc1Cl | – | inactive: 71.8% [at 102 µM]
O=C(CSc1nc2ccccc2[nH]1)Nc1cccc(S(=O)(=O)N2CCOCC2)c1 | inconclusive: 25.1 µM [inhibitor, partial curve, poor fit] | –
CC(=O)c1sc(NS(=O)(=O)c2ccc(C)cc2)nc1C | inconclusive: 3.16 µM [inhibitor, single point] | –
Cc1ccc(NC(=O)c2cc(-n3cnnc3)ccc2Cl)cc1 | – | inactive: -2.64%
CCn1c(SCc2nc(-c3ccc(OC)c(OC)c3)no2)nnc1-c1cccs1 | inconclusive: 89.1 µM [inhibitor, single point] | –
COc1ccc(NCc2cccn2-c2nnc(N3CCCCC3)s2)cc1OC | inconclusive: 0.708 µM [inhibitor, full curve, poor fit] | –
Cc1ccc2nc(COc3ccccc3NC(=O)c3ccc(F)cc3)cc(=O)n2c1 | – | inactive: 5.27%
COc1ccc(N2CCN(C(=O)COC(=O)CCOc3ccc(C)cc3)CC2)cc1 | inconclusive: 3.16 µM [inhibitor, full curve, poor fit] | –
Cc1cc2cc(CNS(=O)(=O)N(C)C)ccc2[nH]1 | inconclusive: 39.8 µM [inhibitor, single point] | –
CCN(CC)C(=O)N1CCC(NC(=O)Cc2ccccc2)CC1 | inconclusive: 70.8 µM [inhibitor, partial curve, poor fit] | –
COc1ccccc1NS(=O)(=O)c1cc(NC(=O)c2ccccc2F)ccc1N1CCOCC1 | inconclusive: 79.4 µM [inhibitor, single point] | –
CC1CCN(S(=O)(=O)c2ccc3c(ccc(=O)n3CC(=O)Nc3cccc(F)c3)c2)CC1 | – | inactive: -0.59%
CN1CCc2c(sc3c2C(=O)NC(c2ccc(C(C)(C)C)cc2)N3)C1 (stereo unspecified) | active: 8.91 µM | –
O=C(Nc1cnc(N2CCN(c3ccccc3)CC2)c(C(=O)O)c1)c1cccs1 | inconclusive: 8.91 µM [inhibitor, partial curve, poor fit] | –
CSCCC1COC(c2cccs2)=N1 (stereo unspecified) | active: 0.891 µM | –
CCOC(=O)Cc1nnc(NC(=O)c2ccccc2OC)s1 | inconclusive: 50.1 µM [inhibitor, partial curve, poor fit] | –
CC(C)(C)C1CCc2oc3ccc(NS(=O)(=O)c4ccc(C(=O)O)cc4)cc3c2C1 (stereo unspecified) | inconclusive: 35.5 µM [inhibitor, partial curve, poor fit] | –
CCn1c(SCC(=O)Nc2ccc(C(C)=O)cc2)nc2nc3c(cc2c1=O)CCCC3 | inconclusive: 44.7 µM [inhibitor, partial curve, poor fit] | –
CC(=O)N1CCc2c(sc(NC(=O)c3cccc(N4C(=O)CCC4=O)c3)c2C(N)=O)C1 | active: 44.7 µM | –
c1c2c(cc3sc(N4CCOCC4)nc13)OCO2 | – | inactive: -49.6% [at 2.33 µM]

SMILES | Potency | activity, negative = inhibition
COc1ccc(NC(C)C(=O)Nc2ccc(C(C)(C)C)cc2)cc1Cl (stereo unspecified) | – | inconclusive: -96.9% [inhibitor]
CS(=O)(=O)N1CCC2(CCN(Cc3ccncc3)CC2)CC1 | – | inactive: -2.77% [at 12.7 µM]
COc1ccc(NC2CCCN(C(=O)c3ccc(C)nc3)C2)cc1 (stereo unspecified) | active: 39.8 µM | –
Cc1[nH]c(C)c(S(=O)(=O)NCc2ccc(N(C)C)cc2)c1C(=O)N1CCCC1 | inconclusive: 70.8 µM [inhibitor, partial curve, poor fit] | –
COc1ccc(N2CC(C(=O)N3CCCC(C)C3)CC2=O)cc1 (stereo unspecified) | – | inactive: -7.37% [at 102 µM]
CC1CCCC(N2CCN(C(=O)c3cccc(F)c3)CC2)C1 (stereo unspecified) | inconclusive: 10 µM [inhibitor, partial curve, poor fit] | –
CSc1ccc(/C=N/NC(=O)CNc2cccc3ccccc23)cc1 | inconclusive: 12.6 µM [inhibitor, partial curve, poor fit] | –
CCN(C(=O)c1cc2c(=O)oc3ccc(C)cc3c2s1)c1ccccc1C | – | inactive: 7.72%
Cc1nnc(Sc2nc3c(c(=O)n(C)c(=O)n3C)n2Cc2ccc(Cl)cc2)s1 | inconclusive: 89.1 µM [inhibitor, single point] | –
COc1ccc(Nc2oc(-c3ccc(COc4ccccc4C)o3)nc2C#N)cc1 | inconclusive: 11.2 µM [inhibitor, partial curve, poor fit] | –
CCCCCc1cc(=O)oc2c(C(CCN3CCN(c4ccccc4)CC3)c3ccc4c(c3)OCO4)c(OC)cc(OC)c12 (stereo unspecified) | inconclusive: 25.1 µM [inhibitor, single point] | –
O=C(c1ccco1)n1nc(-c2cccnc2)nc1NCc1ccco1 | inconclusive: 44.7 µM [inhibitor, partial curve, poor fit] | –
CCN(Cc1ccccc1)C(=O)C1CCN(Cc2ccc(OC)c(OC)c2OC)CC1 | inconclusive: 1.78 µM [inhibitor, full curve, poor fit] | –
COc1cc(-c2nnc(SCc3cc(=O)oc4cc(O)c(O)cc34)o2)cc(OC)c1OC | active: 4.47 µM | –
O=C(CSc1nnc(-c2ccccc2)o1)Nn1cnnc1 | inconclusive: 44.7 µM [inhibitor, partial curve, poor fit] | –
Cc1cc(C)cc(N2C(=O)N(Cc3cccc(F)c3)c3ccccc3S2(=O)=O)c1 | – | inactive: -2.45%
CCOc1ccc(/C=C/[N+](=O)[O-])c2ccccc12 | inconclusive: 8.91 µM [inhibitor, partial curve, poor fit] | –
Cc1noc(/C=C/c2ccco2)c1S(=O)(=O)N1CCC(C(=O)NC(C)c2ccccc2)CC1 (stereo unspecified) | inconclusive: 89.1 µM [inhibitor, single point] | –
COc1cccc(/C(O)=C2\C(=O)C(=O)N(c3ccccn3)C2c2ccccc2OC)c1 (stereo unspecified) | inconclusive: 79.4 µM [inhibitor, single point] | –
COc1ccc(N2CCN(C(=O)CSc3nnc4ncccn34)CC2)cc1 | inconclusive: 31.6 µM [inhibitor, single point] | –
COc1ccc(CCNC(=S)NC(=O)c2cccc(Cl)c2)cc1OC | inconclusive: 50.1 µM [inhibitor, partial curve] | –
CC1CN(c2nc(-c3ccc(Br)cc3)nnc2-c2ccccc2)CC(C)N1 (stereo unspecified) | inconclusive: 50.1 µM [inhibitor, single point] | –

SMILES | Potency | activity, negative = inhibition
Cc1onc(-c2ccccc2Cl)c1C(=O)Nc1cccnc1 | inconclusive: 79.4 µM [inhibitor, single point] | –
COC(=O)Nc1cc(C)nc2ccccc12 | inconclusive: 35.5 µM [inhibitor, partial curve, poor fit] | –
CN(C)c1ccc(CNC(=O)CN2CCSc3ccc(S(=O)(=O)N(C)C)cc32)cc1 | active: 7.94 µM | –
COC(=O)CSc1nnc(CSc2nc(C)cc(C)n2)n1Cc1ccco1 | inconclusive: 14.1 µM [inhibitor, partial curve, poor fit] | –
CC(C)N(C(=O)COC(=O)Cn1cnc2ccccc21)c1ccccc1 | inconclusive: 89.1 µM [inhibitor, partial curve, poor fit] | –
CC(=O)n1cc(C2C(=O)CCCC2=O)c2ccccc21 | inconclusive: 28.2 µM [inhibitor, single point] | –
O=C1CC(C(=O)O)c2ccccc2N1 (stereo unspecified) | inconclusive: 89.1 µM [inhibitor, partial curve, poor fit] | –
CCCCN(C(=O)c1[nH]c(C)c(C(=O)OCC)c1C)c1c(N)n(CCCC)c(=O)[nH]c1=O | inconclusive: 79.4 µM [inhibitor, single point] | –
CCN1CCN(c2ncc3c(n2)CC(c2ccccc2O)CC3=O)CC1 (stereo unspecified) | inconclusive: 11.2 µM [inhibitor, partial curve] | –
O=C(OC1CCS(=O)(=O)c2sccc21)c1ccccc1 (stereo unspecified) | – | inactive: -3.73%
CN(Cc1ccccc1Cl)C(=O)C1CCC(=O)N(C2CCCCCC2)C1 (stereo unspecified) | – | inactive: 6.5% [at 12.7 µM]
O=[N+]([O-])c1ccc(N2CCN(Cc3ccc([N+](=O)[O-])o3)CC2)cc1 | inconclusive: 2.24 µM [inhibitor, partial curve, poor fit] | –
CCC1OC(c2ccc([N+](=O)[O-])cc2)=Nc2ccccc21 (stereo unspecified) | active: 44.7 µM | –
CCOc1ccc(NC(=O)Cn2c(=O)n(CC(=O)NCc3ccccc3Cl)c(=O)c3sccc32)cc1 | – | inactive: 0.651%
Cc1ccc(NC(=O)c2ccccn2)cc1S(=O)(=O)N1CCOCC1 | – | inactive: 3.07% [at 102 µM]
COc1ccc(CNC(=O)c2oc3c(c2C)-c2nn(Cc4ccc(Cl)cc4)cc2CC3)cc1 | – | inactive: 2.61%
Cn1nnnc1SCC(=O)NCC(=O)c1ccccc1 | inconclusive: 44.7 µM [inhibitor, partial curve, poor fit] | –
O=C(Nc1ccc(Br)cc1)C1CCCN1S(=O)(=O)c1ccc(F)cc1 (stereo unspecified) | – | inactive: 2.26%
COc1ccc(-c2csc(-c3[nH]cnc3N)n2)cc1 | inconclusive: 14.1 µM [inhibitor, partial curve, poor fit] | –
CCN(c1ccccc1)S(=O)(=O)c1nnc(NC(=O)COc2cccc(C)c2)s1 | – | inactive: -0.0537%
Oc1ccc2ccccc2c1Br | inconclusive: 50.1 µM [inhibitor, partial curve, poor fit] | –
Cc1ccc(NC(=O)C2CCN(c3nn4cc(-c5ccc(C)cc5)nc4s3)CC2)cc1 | inconclusive: 39.8 µM [inhibitor, partial curve, poor fit] | –
